Over roughly 33,000 sequences, “E-score (-0.5 to 0.5)” has its median near -0.016; the highest 2% begin near 0.31. This is one part of the list.
molecular target: Cst6 (UniProt P40535); assay: PBM E-score (8-mer binding enrichment) (E-score (-0.5 to 0.5)); higher = stronger / more preferred TF binding; most listed sequences are background and not binding sites; conditions: protein concentration: 200 nM; construct: GST-DNA-binding domain
How it was run: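 Universal all-10-mer Agilent arrays, double-stranded by primer extension on fresh or once-stripped slides, were probed with about 100-200 nM GST-tagged yeast transcription factors made by PURExpress. Fluorescent anti-GST detected bound protein, and masliner normalised the scans. E-scores from the Universal PBM Analysis Suite were given to each ungapped eight-base word pooled with its reverse complement.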

Sequence | PBM E-score
GCCCAGCC | -0.179
AAAACGGT | -0.0645
ATTTTGAC | 0.163
AGAATGTA | 0.163
CCCGAACA | -0.14
GGTTGCAA | 0.0302
AATAGCCC | -0.132
ATTGGTTA | 0.22
CGGAAATA | 0.155
AACTGCTT | -0.0903
ACGCCGCG | 0.302
TACGCGGA | 0.0461
CGAAATTC | 0.00331
AAGTACCT | -0.196
ACGATCAC | 0.144
ATGCTGGC | -0.173
CAGGATGC | -0.125
AGCTGTGC | -0.104
AAGCATGC | 0.0597
GAAAAGAA | 0.0954
AGGGCCGA | -0.224
CGGTAGCA | -0.189
ACGCGGCA | 0.28
AAGTAAAT | 0.214
CTGCTTTC | -0.0636

Sequence | PBM E-score
ATGGACAC | 0.0741
ACTGAACA | 0.178
GAGGATAA | -0.0994
TACACATA | 0.159
AGGTAGCG | -0.155
AGGGCTGA | -0.161
AGCAAGAG | -0.0362
GCATATGC | 0.00078
ACGCCGGC | 0.0474
GCCTCGAC | -0.142
ACGTAAGG | 0.347
ACAACCTG | -0.0213
ATAGATAT | 0.238
ATACACCA | -0.0648
AGTGGGAG | -0.137
AGTGTCGC | -0.0178
ATTTGATA | 0.249
AGCATACT | -0.0974
AGATCTAG | 0.0255
CCATACTA | -0.0952
CTCGTACC | -0.205
TCTACGAA | -0.129
TCTGCAGA | -0.0548
ATTTTCCC | 0.0136
CGACTAAG | -0.261

Sequence | PBM E-score
GGCACACC | -0.18
GTATTTAA | 0.189
CACGATGG | -0.161
AATGCGAG | 0.137
GCACCTAA | -0.00624
AGTCGGTG | -0.217
TATTAACA | 0.15
AGAAGTGG | -0.0997
AACAATCT | -0.0115
AAGGTAAA | 0.0394
ACCATTAT | 0.0218
CGCGTCGC | -0.0598
TGACATAA | 0.477
AACTTCTT | 0.133
CATGTGAC | 0.301
AACATAGA | 0.0102
ACCGCAGG | -0.104
ACATGTAT | 0.0876
CGCAAGCA | -0.0224
CGCCCTCA | -0.2
AGATGACC | 0.0152
ATGAAGGC | -0.00363
CTTAACCA | 0.157
TAAACGAA | 0.13
ACGCGAAT | 0.127

Sequence | PBM E-score
GGACTAGA | -0.12
TATATACA | 0.161
ACCCGGCG | -0.271
AGCAGACT | 0.0907
ACCCAAAA | 0.107
CAAGGCAA | 0.151
GGTACGTA | 0.136
GCCTTCGC | -0.012
CGTGCGAA | 0.161
CCATATCC | -0.153
AGGGCGAT | -0.0672
AATAACTG | 0.0271
GCTCGAGC | 0.115
ACAGGCTG | -0.261
ACGGGAAA | 0.0463
GACAAGGC | -0.114
ATAGGTCA | 0.165
AGGGGGTG | -0.442
CGCCTGAA | -0.0216
GAATTTAC | 0.223
ACAATGAC | 0.336
CTATTTCC | 0.0532
CAGACTGA | -0.0699
CACACCCC | -0.294
ACATACGT | 0.291

Sequence | PBM E-score
TGACAGCA | 0.275
CACACTAG | -0.192
ACGACGTG | 0.061
GGCTACAA | 0.0135
ACGAATGA | 0.268
CGACTTGA | -0.124
ACCAGTGA | 0.0246
GAATTGAA | 0.194
CTAGCCTC | -0.23
AATCGGAC | -0.132
CCACTGTA | 0.043
ACTGAGCG | -0.0539
GGCGTGAA | -0.114
CAGCGGCA | 0.0723
AAGTCCAC | -0.26
GCGTATCA | 0.0408
ATGGTGGG | -0.217
CGCGCAGA | 0.178
TACTTACA | 0.165
TAATGAAA | 0.261
AGGACATC | 0.0339
CAGGCGAG | -0.261
AACTCCTC | -0.313
GCGGCATA | 0.26
GTTCAAGA | 0.0751

Sequence | PBM E-score
GCCTACCC | -0.231
ATCGGAAA | -0.0211
GCCCTACC | -0.0719
CCGCCGTC | 0.206
ATGGAGCA | 0.0798
ACCAACGG | -0.141
AGCGGTTG | -0.0171
CGGCAGAC | -0.212
AGCAGGGG | -0.367
ATGGTGCC | -0.0511
CCCCGCCA | -0.0416
AGTATGCG | -0.0706
CAGTTATG | 0.00312
AGGCGTCG | 0.0103
GCACCCGA | -0.13
AAATAATA | 0.287
AACGTGCT | -0.122
AGACTTAT | -0.0263
AACTCTCG | -0.0849
TGTGCTAA | 0.137
GGACTTTA | -0.159
AACCTTAG | -0.158
GGACCCGA | -0.287
GTGACAAA | 0.186
TAAATACA | 0.111

Sequence | PBM E-score
TCGTGAAA | -0.0522
AATTTTGT | 0.173
AGCACGAC | -0.263
AATTCAGC | -0.0332
ATCCTGGC | -0.234
CACAGTCC | -0.153
GAAAGGGA | 0.0133
GCACTAAC | -0.119
AGCGGCTG | -0.103
GAACTCAA | -0.149
CTGTGCTC | -0.0956
AATTTTTG | 0.283
AATCGTGG | 0.136
CCCTCACG | -0.084
GCATGCCC | -0.0157
GGGTTGAC | 0.071
AAAAGGAG | -0.153
AGACGACG | -0.0212
ATCCAGTA | -0.0439
CCCTTGTA | -0.204
TAGGCACA | 0.062
GTGATTTA | 0.165
TCCGGGAA | 0.0328
CAGAGATC | -0.0588
GAGCTCGA | 0.0164

Sequence | PBM E-score
ATGCCCTC | -0.0437
CTACAGAA | 0.0652
CCTTTGTC | -0.0975
ATCATCGC | 0.179
CAGAAATA | 0.217
AACGGCAC | 0.343
CTCCGAAG | -0.197
AAACATTA | 0.0438
CCCACAGG | -0.223
CCGCTTAG | -0.134
CGGCCGGA | -0.145
TCTAACCA | 0.057
CCTACAGC | -0.209
GCTCGCAC | -0.211
AAGTCAAA | 0.132
AAGCACGG | -0.0413
TGAGGACA | 0.0707
CAGGATTA | 0.169
GTATCAAC | -0.0365
CGAGCACC | -0.189
ACGACGAT | 0.157
AAATATGG | -0.00593
CTTGGGCC | -0.229
ATCAAGGG | 0.0863
ACTGAGAT | -0.0678

Sequence | PBM E-score
AACTAAAG | 0.229
AGGGAACA | -0.12
TACGCATA | 0.157
CTTGTCGC | -0.133
TATCGAAA | 0.195
TCAATTGA | 0.287
CCAGCGCG | -0.0669
CATCGGTC | -0.215
GCAAGAAC | 0.107
GCGCCCGC | -0.133
GCGATCCC | -0.241
AACTGAAA | 0.178
CCCAAGAC | -0.0855
CTCTCGCA | -0.207
CATCTTCA | -0.105
CAGAGATG | 0.141
CCTGACTC | -0.247
AGACCTTC | -0.146
GCCCATCA | -0.124
GGCCAGAC | -0.152
GGATTAAA | 0.00456
GCGGTTGA | 0.0505
ATTTAGTA | 0.277
TCTGGCCA | -0.0762
ATGGGGCG | 0.142

Sequence | PBM E-score
ATCGACGC | 0.106
GCGATACC | -0.131
AGAACTGA | 0.192
CCTTAGCA | -0.141
ACACTCCT | -0.201
AATGATAA | 0.347
AATTCCAC | 0.0707
TATACGAA | 0.133
GGCCAACC | -0.141
AGGCGGCC | -0.0818
AGGTCGAC | -0.154
ACTTGCAC | 0.00046
AGACCACC | -0.137
AAGTTCAT | 0.0195
CACGTTGC | -0.00118
AGGGAGTA | -0.178
GGACCCCC | -0.431
GAGCGCGC | 0.116
AAACGTAT | 0.276
ACTGGCAA | -0.043
ACCGTAAA | 0.144
GCGCAAAA | 0.126
AAATGTGG | 0.119
ATTCTATG | 0.164
AGGATATG | -0.00926

Sequence | PBM E-score
ATACCGAA | 0.127
TGAACAAA | 0.234
CAGTCTGG | -0.236
ATACGGGC | -0.204
GCAGAATA | 0.174
CAACTCAC | 0.069
ACGAGCCC | -0.166
CATCCAAG | -0.101
GCTAGTTA | 0.0209
CCTTCAAG | -0.0915
AGCACGAT | 0.00212
AAGGGTAG | -0.0672
AGCGCGGA | -0.0997
CTTTGCCC | -0.272
ACGCACTA | 0.0479
ATGTATGG | 0.0177
CCCCTGAA | -0.109
AGACCCCC | -0.341
ATCTATTA | 0.259
TATATGAA | 0.198
GAGGTATA | 0.0979
ACGATGCA | -0.00326
ATAGTAGA | -0.0203
ACTGTTGA | 0.0234
AGTATCTG | -0.139

Sequence | PBM E-score
AGTACTAA | 0.119
AAGTTCCT | -0.0962
AAGACACG | 0.222
AGTCCGTC | 0.11
AGATTCCA | 0.17
ATGTTCAA | -0.0159
CGTGGTTA | 0.0225
CCGCCTTA | 0.0538
CAGGTTGG | -0.178
ACAATGCA | 0.147
CCGCACGG | 0.234
CGAAAGCC | -0.235
TACAATCA | 0.0771
AAATGTAG | -0.0471
ATTCGTAC | 0.206
AAGAGATA | -0.0328
ACAGCTCC | 0.0842
GATGTTCC | -0.184
AAGATGGA | -0.159
AGCGTTGG | -0.172
GCTGCCCA | -0.226
GCTAATCA | 0.141
TATTGCCA | -0.0113
GCGCTGGA | -0.207
ATTCGCTC | 0.0295

Sequence | PBM E-score
CGAAGTCA | 0.0581
GAGCACTA | -0.118
ATCGCAAA | 0.196
AGTCTAGA | -0.124
TCCAAGGA | -0.202
GATCAGGC | -0.149
ATTGAGTG | 0.2
TACTCCAA | -0.0919
CTTCAGTC | -0.00275
TCTTCGCA | 0.0454
AACGAAGG | -0.0764
ACGTCAAC | 0.484
GATCGACA | 0.0229
CCATTTGA | -0.0854
CGTGCTAA | 0.0279
AATCTTGT | 0.185
GTCGCAGA | -0.0312
ACCCTCCC | 0.077
GTCTTCAA | 0.0203
ACTAGCGA | -0.0939
AAACGGCA | 0.301
ATACATCA | 0.398
CCGCGGAG | -0.225
CAGACATA | 0.131
CCTTCAGC | -0.19

Sequence | PBM E-score
GACACTAC | 0.0584
CTAGAATA | 0.173
ATACTCGC | -0.132
GATCACGA | 0.0488
CGCGTAGC | 0.0231
CCCTACGG | -0.118
CGAGCTCG | 0.0607
GGCGTAGA | 0.0755
CTAACACC | -0.148
AATTCGCA | 0.149
GGGCTCAA | -0.174
CAGAGGTA | 0.0151
GGATCCAC | -0.208
GATGCCGC | 0.243
CTGCCTCA | -0.145
GATTAGCA | -0.00515
TCGCAACA | 0.0733
ATTGACCA | 0.0509
CGCTAATA | 0.109

Reference: the supplement of paper PMC3334620
